From the RNAGym collection of RNA variant scans (doi:10.7554/elife.90254)
Read counts are not given, so values of variants with three or more changes are uncertain.

B1: LINE1-full (parent)
chain: UACGUAGGUGGUUUUCCCCUGAUAGUGCUAAGGGGGCCUGGAAGUUUGGACUGGGCAGAGCUCAACACAGCGUGGCAAAGUGGCUGUGGCUAGACUGCCUCUCUGGAUUCCUCGUCACUCAGCAGGGCAUCUCUGAGAGAAAUGCC

Variants of: B1
Test: self-cleavage, relative activity (ratio to wild type); higher = more cleavage; in vitro, sequencing; the parent is a self-cleaving ribozyme

| Variant | self-cleavage |
| --- | --- |
| U119C G125U U132C A138G | 1.47 |
| U115A U130A A136G A142G | 0.78 |
| U115A U130C U134G | 0.3 |
| U132C A140G C146U | 1.69 |
| A121U A136G U143G | 0.88 |
| A124G U132C A136G | 1.26 |
| U115A U132C A140G | 0.57 |
| A124U A136C A142G | 1.64 |
| U134C A138G A140G | 1.45 |
| A121U U134G A136G | 0.8 |
| A129U U130C U134C | 1.03 |
| A117G G125A A129G | 0.54 |
| U115A A129C U132C | 1.47 |
| U134C A142U U143C | 1.57 |
| U115C G122U A141G | 1.55 |
| A124G U134C A136G | 1.49 |
| U115C U132A A136G | 1.61 |
| C113U C131A U132A | 0.84 |
| C113A A138C A142G | 0.92 |
| A138G A140G C145U | 1.07 |
| U115A U119A A140G | 1.56 |

| Variant | self-cleavage |
| --- | --- |
| U132C A138G A140U | 1.37 |
| A121U U132C A142G | 1.85 |
| U119A C123G A141G A142G | 1.36 |
| A117U C118U A140G | 1.11 |
| C120U A124G A138G U143C | 1.41 |
| A124U A129U A136G | 1.4 |
| U115C G127U A129G | 0.89 |
| A129G U132C A140G | 1.84 |
| G114U A117G U130C | 2.02 |
| A124U A136G U143C | 1.77 |
| U115A A136G A142G | 1.27 |
| A117G U134G A138U | 1.78 |
| U115A U134A G139A | 1.36 |
| A121U U132A A142G | 1.13 |
| A117G A129U U130C A142G | 2.16 |
| A117G U132C A138U A140C | 0.84 |
| U115A U134C G135A | 2.12 |
| A124G G125A G137A | 1.33 |
| U115C A129G G135A | 0 |
| G127A U132C U143G | 0.38 |
| A117U U134C A140U | 1.33 |

| Variant | self-cleavage |
| --- | --- |
| A124G U132A A138G | 0.12 |
| U115A U130C U132A A136U | 1.96 |
| C128U U132C A142G | 1.33 |
| A124G U132A A142G | 0.9 |
| U134C A136U A141G | 1.77 |
| A124G A141G A142G | 0.66 |
| A124C U130C A142G | 1.2 |
| G127A U132A U134C | 0.83 |
| U115C C131U A136G | 1.99 |
| U134C A136U A140G | 1.28 |
| G125A U134C C146A | 0.94 |
| A124U C133U U134C | 1.79 |
| G114A A129U U134C | 0.83 |
| C123U A124G A138G | 0.28 |
| U119C U130C G144A | 1.48 |
| A121G U132C A136U | 1.15 |
| A124G A140U U143A | 1.15 |
| U119A A129G A140U | 2.09 |
| A121G A124G U143C | 0.53 |
| U119C U130C A136G | 1.72 |
| A129U A141G A142G | 2.02 |
